Source: PubChem BioAssay AID1745853 (National Center for Advancing Translational Sciences (NCATS), 2022)
The list shows a part of the results. Shown are side measurements of this screen, not its main read-out; they come without a call.

Experiments:
Assay in all cases: Primary Screen for Target Class Profiling of Small Molecule Inhibitors of Methyltransferases
[1] = target: Glycine N-methyltransferase (Homo sapiens) (UniProt Q14749); conditions: purified enzyme, MTase-Glo SAH luminescence; measured here: GNMT inhibition; at 40 µM; stronger effect = lower value
How it was run: (§1)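 Each enzyme was reacted with SAM and its substrate, with compounds tested once at 40 uM; SAH formed was read by MTase-Glo luminescence.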

[2] = target: Guanidinoacetate N-methyltransferase (Homo sapiens) (UniProt Q14353); conditions: purified enzyme, MTase-Glo SAH luminescence; measured here: GAMT inhibition; at 40 µM; stronger effect = lower value
How it was run: as §1

[3] = target: Histamine N-methyltransferase (Homo sapiens) (UniProt P50135); conditions: purified enzyme, MTase-Glo SAH luminescence; measured here: HNMT inhibition; at 40 µM; stronger effect = lower value
How it was run: as §1

[4] = target: Nicotinamide N-methyltransferase (Homo sapiens) (UniProt P40261); conditions: purified enzyme, MTase-Glo SAH luminescence; measured here: NNMT inhibition; at 40 µM; stronger effect = lower value
How it was run: as §1

[5] = target: Phenylethanolamine N-methyltransferase (Homo sapiens) (UniProt P11086); conditions: purified enzyme, MTase-Glo SAH luminescence; measured here: PNMT inhibition; at 40 µM; stronger effect = lower value
How it was run: as §1
% is set by controls: 0 for no effect and ±100 for the full control effect.

Row | SMILES | activity change, negative = inhibition [1] [%] | activity change, negative = inhibition [2] [%] | activity change, negative = inhibition [3] [%] | activity change, negative = inhibition [4] [%] | activity change, negative = inhibition [5] [%]
1 | CC(C)Cn1c(=O)c2ccc(C(=O)NC(C)C)cc2n2c(=O)[nH]nc12 | -4.33 | 0 | 6.02 | 7.37 | -6.02
2 | O=C(Cn1ccc2cc(S(=O)(=O)N3CCCCC3)ccc21)N1CCOCC1 | -3.27 | -2.54 | -0.894 | -3.25 | -3.06
3 | CC(NC(=O)c1cc2n(n1)CC(C)(C(=O)NC1CCCC1)N(C)C2=O)c1ccc2c(c1)OCCO2 (stereo not drawn) | -3.15 | -1.88 | 0.231 | -4.5 | -1.88
4 | COC1CC(OC2CCC3(C)C(=CCC4C3C(OC(C)=O)C(OC(=O)/C=C/c3ccccc3)C3(C)C(C(C)O)CCC43O)C2)OC(C)C1OC1CC(OC)C(OC2OC(C)C(OC3OC(CO)C(O)C(O)C3O)C(OC)C2O)C(C)O1 (stereo not drawn) | 1.11 | 11.6 | 3.06 | 1.89 | 8.05
5 | CC(=O)N1CCN(c2cc(-c3noc([C@@H]4CCCN4Cc4ccccc4)n3)ccn2)CC1 | -11 | -8.33 | -12.4 | -15.2 | -9.42
6 | Cc1ccc(C(=O)N2CCCCCNC(=O)[C@@H]3CCC[C@@H]32)s1 | 1.42 | 2.28 | 0.429 | 0.816 | -1.03
7 | CCN1CCCCC12Cc1ccccc1CN(S(=O)(=O)c1ccccc1)C2 (stereo not drawn) | -4.54 | -7.57 | -7.07 | -9.72 | -6.83
8 | CCOC(=O)c1ccnc(CNCC(=O)N(CC)CCN(C)C)c1 | 4.96 | 4.4 | 5.58 | -5.56 | 6.5
9 | O=S(=O)(c1cccc(-c2nc(-c3ccccc3)no2)c1)N1CCN(c2ccccc2F)CC1 | -1.51 | 0.525 | -5.54 | -4.78 | -5.72
10 | Cc1cc(N2CCN(C(=O)Oc3ccc(-c4ccccc4)cn3)CC2)c2ccccc2n1 | -48.3 | -0.487 | -11.1 | -25.2 | -7.5
11 | CSc1ccc(CCNC(=O)CCCn2ccc3cc(S(=O)(=O)N4CCCC4)ccc32)cc1 | -1.21 | 1.49 | 0.703 | -1.03 | 0.878
12 | Cc1ccccc1CN1C(=O)c2cc3occc3n2CC1(C)C(=O)NC1CCCC(C)C1C (stereo not drawn) | -2.74 | 2.95 | 6.74 | 1.21 | -0.27
13 | NOCC(=O)O | 7.87 | 5.42 | 14.1 | -4.39 | 2.58
14 | CCCn1c(=O)c2ccccc2n2c(SCc3ccc(C)cc3)nnc12 | -8.97 | 1.71 | 9.34 | -12.2 | 5.58
15 | COc1cc2ncnc(Nc3ccc(O)cc3)c2cc1OC | -7.46 | 3.63 | -6.4 | -16.4 | -6.17
16 | COc1ccc(N(C(=O)c2cccs2)S(=O)(=O)c2ccc3c(c2)n(C)c(=O)n3C)cc1 | -8.01 | 3.85 | -5.13 | -23.2 | -4.5
17 | c1cc(Nc2cc(C3CC3)[nH]n2)nc(Nc2ccc3nc[nH]c3c2)n1 | -29 | -5.2 | -26 | -34 | -17.8
18 | Cc1cc(C)c(CNC(=O)c2cc(-c3cnn(C)c3C)cc3c2OCCN3C)c(=O)[nH]1 | -75.5 | -66.9 | -81.3 | -65.9 | -55
19 | Cc1ccc(NC(=O)N2CCC(n3c(C)cnc3-c3cccnc3)C2)cc1C (stereo not drawn) | 0.889 | -0.81 | -1.72 | 4.63 | 2.68
20 | O=C1NC[C@@H](CCC(=O)N2CCc3ccccc32)N2C[C@@H](NS(=O)(=O)c3ccccc3)C[C@@H]12 | -4.07 | -1.97 | -0.165 | -4.1 | -0.71

Row | SMILES | activity change, negative = inhibition [1] [%] | activity change, negative = inhibition [2] [%] | activity change, negative = inhibition [3] [%] | activity change, negative = inhibition [4] [%] | activity change, negative = inhibition [5] [%]
21 | O=C(C1CCCC1)N1CC2(CCN(Cc3ccccn3)C2)OCc2ccccc21 (stereo not drawn) | -0.752 | -3.89 | -0.956 | -2.77 | -4.07
22 | CC(=O)NC1CC2(CCN(C(=O)C3CCN(C)CC3)CC2)c2ccccc21 (stereo not drawn) | -5.9 | -6.59 | -47.3 | -10.2 | -15.1
23 | CCCn1c(=O)c2ccc(C(=O)NC3CCCC3)cc2n2c(=O)n(Cc3ccccc3)nc12 | -6.54 | -0.424 | 0.138 | -1.78 | -2.24
24 | COC(=O)c1ncn2c1C(=O)N(Cc1ccc(Cl)cc1)C(C)(C(=O)NC1CCCC1)C2 (stereo not drawn) | 3.3 | 5.7 | -0.268 | 3.79 | -1.45
25 | COC(=O)[C@@H]1Cc2ncn(Cc3ccc(Cl)cc3)c2CN1Cc1cccnc1 | -7.46 | -0.861 | -4.54 | -2.69 | -8.11
26 | O=C1c2ccccc2-c2nc3nnnn3nc21 (tested in a mixture with another compound) | – | -92.4 | – | -77 | -14.8
27 | CC(=O)NCCNc1nc2c(-c3cccc(Br)c3)nnn2c2ccccc12 | -8.09 | 0 | 8.72 | 5.11 | 0.288
28 | COCC1CN(C)CC12CCN(Cc1ccc(Br)o1)CC2 (stereo not drawn) | -6.79 | -5.93 | -6.64 | -9.15 | -7.46
29 | CCCn1c(=O)c2cc(F)ccc2n2c(SCC(=O)N(C)c3ccccc3)nnc12 | -3.21 | 0 | 4.8 | -10.7 | 1.87
30 | CCOc1ccc(S(=O)(=O)NCc2ccncc2)cc1 | -6.8 | 4.7 | 1.53 | 8.28 | -2.31
31 | CCC(C)(C)C1CCc2c(sc(NC(=O)c3ccc(Br)cc3)c2C#N)C1 (stereo not drawn) | 6.4 | -1.12 | 8.39 | -14 | -3.54
32 | CC1CCCC(NC(=O)C2(C)Cn3c(cc4occc43)C(=O)N2c2ccc(Cl)cc2)C1C (stereo not drawn) | -3.12 | 2.18 | -0.792 | -5.54 | -7.74
33 | Cc1noc(C)c1-c1cc2c(cc(C)n2C)c(N2CCN(c3ccccn3)CC2)n1 | -11 | -1.33 | -7.23 | -8.51 | -0.181
34 | COc1ccccc1NC(=O)c1sc(=S)n2c1[nH]c(=O)c1cc(Cl)ccc12 | -17.4 | 0 | 0.743 | -4.7 | -13.1
35 | COc1ccc(-c2cc3n(n2)CC(C)(C(=O)NCc2ccccc2)N(CCc2cccs2)C3=O)cc1 (stereo not drawn) | 4.1 | 0 | 3.45 | 7.3 | 0.391
36 | Cc1noc(C)c1[S+](=O)([O-])N1CCC2(CC1)Cc1ccccc1NC2=O | -12.7 | -12.3 | -4.67 | -20.8 | -16.3
37 | CC(C)NC(=O)c1ccccc1OCC1CCCN(Cc2ccncc2F)C1 (stereo not drawn) | -2.88 | -1.57 | -1.54 | -11 | -4.17
38 | CCCC1(CO)CCCN(Cc2cnn(-c3cccc(F)c3)c2)C1 (stereo not drawn) | -1.75 | -6.05 | -7.69 | -4.35 | -4.67
39 | C[C@@H]1O[C@@H](O[C@H]2[C@H](O[C@H]3CC[C@@]4(C)C(CC[C@]5(C)C4CC=C4[C@@H]6CC(C)(C)CC[C@]6(C(=O)O)CC[C@]45C)[C@]3(C)CO)OC[C@H](O)[C@@H]2O)[C@H](O)[C@H](O[C@@H]2OC[C@@H](O)[C@H](O)[C@H]2O)[C@H]1O (stereo partly drawn) | 5.48 | -7.46 | 1.36 | -19.1 | 3.25
